Test results as given in the supplement of paper PMC8728848.
Some of the results follow.

Key:
Experiment in all cases: glycan array binding signal (z-score within array); higher = stronger binding
Conditions in all cases: glycan notation: IUPAC condensed, linker removed
[1] = biological target: Fuc(a1-2)[Gal(a1-4)]Gal(b1-4)GlcNAc
How it was run: (§1)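 From the Consortium for Functional Glycomics database, 3228 arrays were curated, keeping only those whose protein sequence was available. Binding is given as a within-array Z-score averaged across arrays sharing a protein sequence and across linkers. Negative Z-scores can be read as non-binding.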

[2] = biological target: Fuc(a1-2)[GalNAc(a1-3)]Gal
How it was run: as §1

[3] = biological target: Fuc(a1-2)[GalNAc(a1-3)]Gal(b1-3)GalNAc(a1-3)[Fuc(a1-2)]Gal(b1-4)GlcNAc
How it was run: as §1

[4] = biological target: Fuc(a1-2)[GalNAc(a1-3)]Gal(b1-3)GalNAc(b1-3)Gal(a1-4)Gal(b1-4)Glc
How it was run: as §1

[5] = biological target: Fuc(a1-2)[GalNAc(a1-3)]Gal(b1-3)GlcNAc
How it was run: as §1

[6] = biological target: Fuc(a1-2)[GalNAc(a1-3)]Gal(b1-3)GlcNAc(b1-2)Man(a1-3)[Fuc(a1-2)[GalNAc(a1-3)]Gal(b1-3)GlcNAc(b1-2)Man(a1-6)]Man(b1-4)GlcNAc(b1-4)GlcNAc
How it was run: as §1

[7] = biological target: Fuc(a1-2)[GalNAc(a1-3)]Gal(b1-3)GlcNAc(b1-2)Man(a1-3)[Fuc(a1-2)[GalNAc(a1-3)]Gal(b1-3)GlcNAc(b1-2)Man(a1-6)]Man(b1-4)GlcNAc(b1-4)[Fuc(a1-6)]GlcNAc
How it was run: as §1

[8] = biological target: Fuc(a1-2)[GalNAc(a1-3)]Gal(b1-3)GlcNAc(b1-3)GalNAc
How it was run: as §1

[9] = biological target: Fuc(a1-2)[GalNAc(a1-3)]Gal(b1-3)GlcNAc(b1-6)GalNAc
How it was run: as §1

[10] = biological target: Fuc(a1-2)[GalNAc(a1-3)]Gal(b1-4)Glc
How it was run: as §1

[11] = biological target: Fuc(a1-2)[GalNAc(a1-3)]Gal(b1-4)GlcNAc
How it was run: as §1

[12] = biological target: Fuc(a1-2)[GalNAc(a1-3)]Gal(b1-4)GlcNAc(b1-2)Man
How it was run: as §1

[13] = biological target: Fuc(a1-2)[GalNAc(a1-3)]Gal(b1-4)GlcNAc(b1-2)Man(a1-3)[Fuc(a1-2)[GalNAc(a1-3)]Gal(b1-4)GlcNAc(b1-2)Man(a1-6)]Man(b1-4)GlcNAc(b1-4)GlcNAc
How it was run: as §1

[14] = biological target: Fuc(a1-2)[GalNAc(a1-3)]Gal(b1-4)GlcNAc(b1-2)Man(a1-3)[Fuc(a1-2)[GalNAc(a1-3)]Gal(b1-4)GlcNAc(b1-2)Man(a1-6)]Man(b1-4)GlcNAc(b1-4)[Fuc(a1-6)]GlcNAc
How it was run: as §1

[15] = biological target: Fuc(a1-2)[GalNAc(a1-3)]Gal(b1-4)GlcNAc(b1-3)Gal(b1-4)GlcNAc
How it was run: as §1

[16] = biological target: Fuc(a1-2)[GalNAc(a1-3)]Gal(b1-4)GlcNAc(b1-3)Gal(b1-4)GlcNAc(b1-3)Gal(b1-4)GlcNAc
How it was run: as §1

[17] = biological target: Fuc(a1-2)[GalNAc(a1-3)]Gal(b1-4)GlcNAc(b1-3)GalNAc
How it was run: as §1

[18] = biological target: Fuc(a1-2)[GalNAc(a1-3)]Gal(b1-4)GlcNAc(b1-3)[Fuc(a1-2)[GalNAc(a1-3)]Gal(b1-4)GlcNAc(b1-6)]GalNAc
How it was run: as §1

[19] = biological target: Fuc(a1-2)[GalNAc(a1-3)]Gal(b1-4)GlcNAc(b1-6)GalNAc
How it was run: as §1

[20] = biological target: Fuc(a1-2)[GalNAc(a1-3)]Gal(b1-4)[Fuc(a1-3)]GlcNAc
How it was run: as §1

[21] = biological target: Fuc(a1-2)[GalNAc(a1-3)]Gal(b1-4)[Fuc(a1-3)]GlcNAc(b1-3)GalNAc
How it was run: as §1

[22] = biological target: Fuc(a1-2)[GalNAc(a1-4)]Gal(b1-4)GlcNAc
How it was run: as §1

[23] = biological target: Fuc(a1-2)[GalNAc(b1-3)]Gal
How it was run: as §1

Fuc(a1-3)GlcNAc = biological target: Fuc(a1-3)GlcNAc
How it was run: as §1

[24] = biological target: Fuc(a1-3)[Gal(b1-4)]Glc6S
How it was run: as §1

[25] = biological target: Fuc(a1-3)[Gal(b1-4)]GlcNAc
How it was run: as §1

[26] = biological target: Fuc(a1-3)[Gal(b1-4)]GlcNAc(b1-2)Man
How it was run: as §1

[27] = biological target: Fuc(a1-3)[Gal(b1-4)]GlcNAc(b1-2)Man(a1-3)[Fuc(a1-3)[Gal(b1-4)]GlcNAc(b1-2)Man(a1-6)]Man(b1-4)GlcNAc(b1-4)GlcNAc
How it was run: as §1

[28] = biological target: Fuc(a1-3)[Gal(b1-4)]GlcNAc(b1-2)Man(a1-3)[Fuc(a1-3)[Gal(b1-4)]GlcNAc(b1-2)Man(a1-6)]Man(b1-4)GlcNAc(b1-4)[Fuc(a1-6)]GlcNAc
How it was run: as §1

[29] = biological target: Fuc(a1-3)[Gal(b1-4)]GlcNAc(b1-3)Gal(b1-3)[Fuc(a1-4)]GlcNAc
How it was run: as §1

[30] = biological target: Fuc(a1-3)[Gal(b1-4)]GlcNAc(b1-3)Gal(b1-4)[Fuc(a1-3)]GlcNAc
How it was run: as §1

[31] = biological target: Fuc(a1-3)[Gal(b1-4)]GlcNAc(b1-3)Gal(b1-4)[Fuc(a1-3)]GlcNAc(b1-3)Gal(b1-4)[Fuc(a1-3)]GlcNAc
How it was run: as §1

[32] = biological target: Fuc(a1-3)[Gal(b1-4)]GlcNAc(b1-3)GalNAc
How it was run: as §1

[33] = biological target: Fuc(a1-3)[Gal(b1-4)]GlcNAc(b1-6)GalNAc
How it was run: as §1

[34] = biological target: Fuc(a1-3)[Gal(b1-4)]GlcNAc(b1-6)[Gal(b1-3)GlcNAc(b1-3)]Gal(b1-4)Glc
How it was run: as §1

[35] = biological target: Fuc(a1-3)[Gal(b1-4)]GlcNAc6S
How it was run: as §1

[36] = biological target: Fuc(a1-3)[Gal3S(b1-4)]Glc
How it was run: as §1

[37] = biological target: Fuc(a1-3)[Gal3S(b1-4)]GlcNAc
How it was run: as §1

B1: SAOUHSC 00176 (Staphylococcus aureus) (protein)
chain: MSKILKCITLAVVMLLIVTACGPNRSKEDIDKALNKDNSKDKPNQLTMWVDGDKQMAFYKKITDQYTKKTGIKVKLVNIGQNDQLENISLDAPAGKGPDIFFLAHDNTGSAYLQGLAAEIKLSKDELKGFNKQALKAMNYDNKQLALPAIVETTALFYNKKLVKNAPQTLEEVEANAAKLTDSKKKQYGMLFDAKNFYFNYPFLFGNDDYIFKKNGSEYDIHQLGLNSKHVVKNAERLQKWYDKGYLPKAATHDVMIGLFKEGKVGQFVTGPWNINEYQETFGKDLGVTTLPTDGGKPMKPFLGVRGWYLSEYSKHKYWAKDLMLYITSKDTLQKYTDEMSEITGRVDVKSSNPNLKVFEKQARHAEPMPNIPEMRQVWEPMGNASIFISNGKNPKQALDEATNDITQNIKILHPSQNDKKGD
[1]
  glycan array binding signal (z-score): -0.01
[2]
  glycan array binding signal (z-score): -0.129
[3]
  glycan array binding signal (z-score): -0.122
[4]
  glycan array binding signal (z-score): -0.02
[5]
  glycan array binding signal (z-score): -0.088
[6]
  glycan array binding signal (z-score): -0.14
[7]
  glycan array binding signal (z-score): -0.133
[8]
  glycan array binding signal (z-score): -0.086
[9]
  glycan array binding signal (z-score): -0.227
[10]
  glycan array binding signal (z-score): -0.145
[11]
  glycan array binding signal (z-score): -0.132
[12]
  glycan array binding signal (z-score): -0.143
[13]
  glycan array binding signal (z-score): -0.026
[14]
  glycan array binding signal (z-score): 0.225
[15]
  glycan array binding signal (z-score): -0.18
[16]
  glycan array binding signal (z-score): -0.095
[17]
  glycan array binding signal (z-score): -0.093
[18]
  glycan array binding signal (z-score): -0.092
[19]
  glycan array binding signal (z-score): -0.2
[20]
  glycan array binding signal (z-score): -0.149
[21]
  glycan array binding signal (z-score): 0.044
[22]
  glycan array binding signal (z-score): -0.067
[23]
  glycan array binding signal (z-score): -0.062
Fuc(a1-3)GlcNAc
  glycan array binding signal (z-score): -0.015
[24]
  glycan array binding signal (z-score): 0.055
[25]
  glycan array binding signal (z-score): -0.127
[26]
  glycan array binding signal (z-score): -0.094
[27]
  glycan array binding signal (z-score): -0.15
[28]
  glycan array binding signal (z-score): -0.009
[29]
  glycan array binding signal (z-score): -0.06
[30]
  glycan array binding signal (z-score): -0.068
[31]
  glycan array binding signal (z-score): -0.111
[32]
  glycan array binding signal (z-score): -0.154
[33]
  glycan array binding signal (z-score): -0.13
[34]
  glycan array binding signal (z-score): -0.172
[35]
  glycan array binding signal (z-score): 0.019
[36]
  glycan array binding signal (z-score): -0.08
[37]
  glycan array binding signal (z-score): -0.097
